The target in experiment [1] is FLAG mMixl1 (mouse) (UniProt Q9WUI0). The experiment is described as follows: co-IP; 293T cells co-transfected with FLAG and HA expression plasmids; whole cell lysates in ELB150 buffer; IP with 5 µg anti-FLAG M2 or isotype control antibody, 4°C, protein G beads; Western blot with anti-HA (or anti-T N19).
For experiment [2], the target named is T1, GST mTbx3 (mouse) (UniProt P70324).
T1 sequence: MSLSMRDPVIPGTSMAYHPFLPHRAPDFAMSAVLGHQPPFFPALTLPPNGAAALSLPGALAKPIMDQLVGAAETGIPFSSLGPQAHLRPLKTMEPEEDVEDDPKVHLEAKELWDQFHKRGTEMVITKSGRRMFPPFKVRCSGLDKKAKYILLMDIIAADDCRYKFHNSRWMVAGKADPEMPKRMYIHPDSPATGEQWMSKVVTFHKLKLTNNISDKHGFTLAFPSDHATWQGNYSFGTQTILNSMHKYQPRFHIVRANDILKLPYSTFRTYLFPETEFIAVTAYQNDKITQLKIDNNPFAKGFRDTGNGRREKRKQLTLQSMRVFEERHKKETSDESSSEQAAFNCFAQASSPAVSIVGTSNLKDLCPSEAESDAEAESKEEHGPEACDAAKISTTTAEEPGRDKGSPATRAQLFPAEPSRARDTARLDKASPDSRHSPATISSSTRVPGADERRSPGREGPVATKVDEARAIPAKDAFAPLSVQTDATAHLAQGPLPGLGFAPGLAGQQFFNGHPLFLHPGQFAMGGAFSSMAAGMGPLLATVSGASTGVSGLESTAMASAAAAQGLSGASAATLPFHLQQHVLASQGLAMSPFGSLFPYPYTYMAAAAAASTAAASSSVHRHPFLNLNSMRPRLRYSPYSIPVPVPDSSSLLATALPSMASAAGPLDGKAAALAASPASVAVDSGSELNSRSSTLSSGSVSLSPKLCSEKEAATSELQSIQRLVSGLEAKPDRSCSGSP
Description: pull-down; 293T cells co-transfected with pDEST27 (GST) and pMT2-SM HA plasmids; whole cell lysates in ELB150 buffer on glutathione agarose, 4°C; Western blot with anti-HA. Background: In western blotting, separated proteins are transferred to a membrane and probed.

By UniProt entry, the sequences of proteins in these tests, tags left out. Where a name states a change or a piece, a line headed by the entry shows the natural chain unless it says otherwise.
UniProt Q9WUI0: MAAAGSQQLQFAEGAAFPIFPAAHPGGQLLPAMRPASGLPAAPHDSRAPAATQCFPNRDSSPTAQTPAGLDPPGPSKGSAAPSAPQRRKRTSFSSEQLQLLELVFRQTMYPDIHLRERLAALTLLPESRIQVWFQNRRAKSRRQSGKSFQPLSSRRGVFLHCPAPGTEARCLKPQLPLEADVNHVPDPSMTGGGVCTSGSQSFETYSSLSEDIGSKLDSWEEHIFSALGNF
UniProt Q02591: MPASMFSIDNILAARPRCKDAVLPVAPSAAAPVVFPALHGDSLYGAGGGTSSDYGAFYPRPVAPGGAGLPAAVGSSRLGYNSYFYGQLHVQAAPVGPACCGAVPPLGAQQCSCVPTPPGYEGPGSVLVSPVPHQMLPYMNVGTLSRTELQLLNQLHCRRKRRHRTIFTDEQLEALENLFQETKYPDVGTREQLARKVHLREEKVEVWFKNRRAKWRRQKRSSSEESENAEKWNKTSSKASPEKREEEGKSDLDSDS

In experiment [3] the target is T2, GST mTbx6 (mouse) (UniProt P70327).
T2 sequence: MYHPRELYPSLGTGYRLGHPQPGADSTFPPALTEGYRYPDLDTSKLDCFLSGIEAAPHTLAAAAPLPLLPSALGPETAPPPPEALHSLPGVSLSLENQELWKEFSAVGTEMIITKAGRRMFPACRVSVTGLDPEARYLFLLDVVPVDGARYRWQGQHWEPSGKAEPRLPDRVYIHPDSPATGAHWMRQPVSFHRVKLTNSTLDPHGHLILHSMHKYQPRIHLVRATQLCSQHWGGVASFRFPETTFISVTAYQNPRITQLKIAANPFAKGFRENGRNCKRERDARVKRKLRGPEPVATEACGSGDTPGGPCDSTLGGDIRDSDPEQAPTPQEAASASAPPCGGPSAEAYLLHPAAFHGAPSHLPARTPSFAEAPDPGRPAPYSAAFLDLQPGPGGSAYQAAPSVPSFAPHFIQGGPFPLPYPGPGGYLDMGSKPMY
The experiment is described as above.

Experiment [4] has as its target T3, GST mTbx20 (mouse) (UniProt Q9ES03).
T3 sequence: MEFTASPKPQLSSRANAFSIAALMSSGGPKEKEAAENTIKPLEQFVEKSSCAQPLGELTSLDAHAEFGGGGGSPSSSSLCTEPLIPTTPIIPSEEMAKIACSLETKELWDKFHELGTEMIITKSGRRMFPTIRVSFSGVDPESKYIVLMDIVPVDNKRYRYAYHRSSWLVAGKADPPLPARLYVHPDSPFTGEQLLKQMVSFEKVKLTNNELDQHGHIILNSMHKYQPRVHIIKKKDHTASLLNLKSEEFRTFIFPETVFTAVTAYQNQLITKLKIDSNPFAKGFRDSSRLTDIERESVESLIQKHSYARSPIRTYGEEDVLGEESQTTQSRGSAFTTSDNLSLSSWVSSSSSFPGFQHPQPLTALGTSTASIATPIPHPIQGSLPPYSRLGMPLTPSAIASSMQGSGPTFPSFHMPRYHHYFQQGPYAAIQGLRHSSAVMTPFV
Described as above.

In experiment [5] the target is T4, GST mT (mouse) (UniProt P20293).
T4 sequence: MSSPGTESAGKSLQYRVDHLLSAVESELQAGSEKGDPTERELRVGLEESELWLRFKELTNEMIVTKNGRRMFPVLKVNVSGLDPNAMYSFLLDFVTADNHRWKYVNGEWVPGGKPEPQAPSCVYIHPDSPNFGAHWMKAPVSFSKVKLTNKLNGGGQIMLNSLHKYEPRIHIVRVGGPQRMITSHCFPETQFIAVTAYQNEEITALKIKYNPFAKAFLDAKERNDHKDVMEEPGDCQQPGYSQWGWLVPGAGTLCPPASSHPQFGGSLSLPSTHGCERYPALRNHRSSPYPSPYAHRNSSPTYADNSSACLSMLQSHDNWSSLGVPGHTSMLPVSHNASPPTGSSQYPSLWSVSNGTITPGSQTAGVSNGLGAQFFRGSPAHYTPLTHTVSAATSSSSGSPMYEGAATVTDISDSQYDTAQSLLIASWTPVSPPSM
Described as above.

For experiment [6], the target named is T5, GST mEomes (mouse) (UniProt O54839).
T5 sequence: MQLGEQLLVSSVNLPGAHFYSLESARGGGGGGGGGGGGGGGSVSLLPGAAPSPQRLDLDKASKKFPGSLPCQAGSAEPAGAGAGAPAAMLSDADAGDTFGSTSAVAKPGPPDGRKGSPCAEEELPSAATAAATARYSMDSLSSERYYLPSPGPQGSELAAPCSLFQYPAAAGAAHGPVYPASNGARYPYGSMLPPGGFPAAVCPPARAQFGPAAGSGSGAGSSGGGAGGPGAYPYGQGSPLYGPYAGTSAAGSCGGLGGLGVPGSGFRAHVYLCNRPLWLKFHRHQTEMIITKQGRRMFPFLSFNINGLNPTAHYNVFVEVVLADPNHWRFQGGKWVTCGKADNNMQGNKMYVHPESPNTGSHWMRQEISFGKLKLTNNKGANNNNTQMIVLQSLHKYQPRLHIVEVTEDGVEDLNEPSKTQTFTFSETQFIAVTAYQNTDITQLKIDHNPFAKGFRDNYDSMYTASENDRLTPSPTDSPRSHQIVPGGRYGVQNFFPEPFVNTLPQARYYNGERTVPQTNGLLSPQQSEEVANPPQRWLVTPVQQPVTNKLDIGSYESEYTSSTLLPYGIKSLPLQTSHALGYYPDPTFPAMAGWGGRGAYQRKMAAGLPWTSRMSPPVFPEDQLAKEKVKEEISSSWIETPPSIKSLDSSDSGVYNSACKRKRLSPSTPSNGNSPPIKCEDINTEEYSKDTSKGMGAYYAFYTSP
The experiment is described as above.

Experiment [7] addresses T6, GST-T aa 230–436 (mouse) (UniProt P20293).
T6 sequence: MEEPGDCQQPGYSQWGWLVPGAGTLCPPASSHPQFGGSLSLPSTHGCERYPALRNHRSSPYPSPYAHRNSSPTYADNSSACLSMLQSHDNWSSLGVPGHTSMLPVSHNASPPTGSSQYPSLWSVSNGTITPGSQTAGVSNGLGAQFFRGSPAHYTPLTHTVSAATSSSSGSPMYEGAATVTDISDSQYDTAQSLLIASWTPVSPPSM
The description is as above.

For experiment [8], the target named is T7, GST-T aa 151–436 (mouse) (UniProt P20293).
T7 sequence: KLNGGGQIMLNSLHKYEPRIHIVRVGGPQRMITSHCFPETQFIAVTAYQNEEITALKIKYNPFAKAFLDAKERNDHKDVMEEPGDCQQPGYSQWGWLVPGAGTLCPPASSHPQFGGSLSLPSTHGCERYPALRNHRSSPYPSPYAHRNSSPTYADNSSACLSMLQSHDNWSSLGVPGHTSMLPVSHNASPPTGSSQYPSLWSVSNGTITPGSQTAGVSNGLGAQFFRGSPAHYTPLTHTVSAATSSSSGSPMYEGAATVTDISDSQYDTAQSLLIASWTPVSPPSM
Described as above.

The target of experiment [9] is His-mBrachyury (mouse) (UniProt P20293). The experiment is described as follows: pull-down; recombinant His-Brachyury immobilised on Talon metal affinity resin; nuclear protein extracts of day 4 embryoid bodies; Western blot with anti-Mixl1 6G2; only the target purified.

No constants are given. Whether binding was seen depends on the method and setting. In cells and extracts the contact can be indirect. Some binding calls cover weakened binding; strength is not graded here. For part of these data: Tags and fused reporters may be left off the sequences shown.

HA mGsc (from UniProt Q02591 1-256): the binding result in experiment [1], in experiment [2], in [3], in experiment [4] and in [5] was “binds” throughout.

Consider HA mMixl1 (from UniProt Q9WUI0 1-231), for which the binding entry in [1], in [6], in experiment [7], in [2], in experiment [3] and in experiment [4] was “binds” each time. Further, the binding entry in [8] and in [5] was “binds” throughout.

On to “HA mMixl1 I113R (from UniProt Q9WUI0 1-231)”, for which the binding entry in experiment [5] is “binds”.

Turning to “HA mMixl1 P126I (from UniProt Q9WUI0 1-231)”, the binding result in [5] was “binds”.

As for “HA mMixl1 R143I (from UniProt Q9WUI0 1-231)”, in [5], the binding result is “binds”.

Turning to “HA mMixl1 V132A (from UniProt Q9WUI0 1-231)”, the binding entry in experiment [5] is “binds”.

For the substance “endogenous Mixl1 (from UniProt Q9WUI0 1-231)”, the binding result in experiment [9] is “binds”.

The values are drawn from publication PMC3229578.
